Screen size: about 310,000 compounds; about 2,200 (0.71%) showed an effect of 50% or more. Effects have a minus sign here. The list shows a part of the results.

Chain of human ether-à-go-go-related gene (hERG) potassium channel (Q12809 whole entry, looked up): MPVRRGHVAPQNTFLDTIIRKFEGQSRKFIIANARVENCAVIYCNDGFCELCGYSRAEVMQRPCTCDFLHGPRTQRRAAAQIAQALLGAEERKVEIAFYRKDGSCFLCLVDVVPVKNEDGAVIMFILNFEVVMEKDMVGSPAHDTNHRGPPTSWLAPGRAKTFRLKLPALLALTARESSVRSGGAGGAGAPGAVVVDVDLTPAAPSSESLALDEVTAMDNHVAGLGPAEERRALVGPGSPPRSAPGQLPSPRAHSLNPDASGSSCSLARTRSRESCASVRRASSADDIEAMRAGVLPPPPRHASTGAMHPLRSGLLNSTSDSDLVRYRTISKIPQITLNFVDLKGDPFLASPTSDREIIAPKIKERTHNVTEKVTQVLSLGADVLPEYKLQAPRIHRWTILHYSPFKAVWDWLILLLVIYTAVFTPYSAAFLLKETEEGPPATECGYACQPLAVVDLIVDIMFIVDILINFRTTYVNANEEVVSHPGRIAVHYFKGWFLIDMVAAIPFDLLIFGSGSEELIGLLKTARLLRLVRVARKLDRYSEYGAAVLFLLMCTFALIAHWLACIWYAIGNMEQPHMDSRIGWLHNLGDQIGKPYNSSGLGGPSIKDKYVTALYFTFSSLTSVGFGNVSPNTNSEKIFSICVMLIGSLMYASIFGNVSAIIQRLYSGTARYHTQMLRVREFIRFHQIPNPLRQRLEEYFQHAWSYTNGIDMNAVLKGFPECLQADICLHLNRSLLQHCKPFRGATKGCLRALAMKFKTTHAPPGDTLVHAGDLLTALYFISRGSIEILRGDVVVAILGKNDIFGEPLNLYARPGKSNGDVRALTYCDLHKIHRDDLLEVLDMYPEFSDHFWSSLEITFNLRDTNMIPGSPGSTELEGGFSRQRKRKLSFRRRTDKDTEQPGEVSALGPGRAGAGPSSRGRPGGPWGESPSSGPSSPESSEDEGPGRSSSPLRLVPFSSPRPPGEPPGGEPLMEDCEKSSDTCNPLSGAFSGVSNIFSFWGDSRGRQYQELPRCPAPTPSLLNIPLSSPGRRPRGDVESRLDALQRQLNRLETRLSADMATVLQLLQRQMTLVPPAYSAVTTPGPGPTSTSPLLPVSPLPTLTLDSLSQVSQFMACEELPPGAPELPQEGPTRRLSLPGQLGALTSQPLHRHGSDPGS

The test has as its target human ether-à-go-go-related gene (hERG) potassium channel (human, UniProt Q12809). As to the kind of experiment: primary screen, population patch clamp on CHO cells stably expressing hERG.
In the case of `O=C(NCCc1cn2ccccc2n1)c1cc(COc2c(F)cccc2F)on1`, the “hERG current change (%, negative = inhibition) at 1uM” value is -35%. Under `O=C(COc1ccc(Br)cc1Cl)NC1CCCCC1` stands 16.5%. Turning to `C=CCn1cc(C=C2C(=O)N(C)C(=O)N(C)C2=O)c2ccccc21`, the “hERG current change (%, negative = inhibition) at 1uM” value stood at 19.1%. Take `CCc1cc2c(=O)c(-c3ccc4c(c3)OCCO4)coc2cc1OC(=O)c1ccco1`: the “hERG current change (%, negative = inhibition) at 1uM” value is recorded as -0.0889%. `c1ccc(Cn2c(CNc3nc4ccccc4n3CCN3CCOCC3)nc3ccccc32)cc1`: the “hERG current change (%, negative = inhibition) at 1uM” value is reported as -54.4%. `N#CCSc1nnc2sc3ccccc3n12`: the “hERG current change (%, negative = inhibition) at 1uM” value is listed as 12.4%. Under `CCCS(=O)(=O)c1c(S(=O)(=O)CCC)c2cnccn2c1C(=O)c1ccc(OC)cc1` stands 19.9%; under `Oc1ccccc1CNc1nccs1`, 23.6%; under `Cc1ccc(-n2c(SCC(=O)Nc3cc(S(=O)(=O)N4CCOCC4)ccc3Cl)nc3ccccc3c2=O)cc1`, 1.4%. Under `O=C(CCCc1ccccc1)N1CCN(c2ccc([N+](=O)[O-])cc2)CC1` stands -48.2%. For the compound `Cc1cc(C)nc(N/N=C/C(Cl)=C/c2ccccc2)n1`, the “hERG current change (%, negative = inhibition) at 1uM” value came out at 0.291%. Under `Cl.O=C(/C=C/c1ccco1)OCC1CCCN2CCCCC12` (stereo not drawn) stands 7.41%.

With `CC(=O)c1cccc(NC(=O)CC2SC(N3CCCCC3)=NC2=O)c1` (stereo not drawn), the “hERG current change (%, negative = inhibition) at 1uM” value came to 4.42%.

Turning to `CC(=O)N1CCN(S(=O)(=O)c2ccc(S(=O)(=O)NCC(C)C)cc2)CC1.O=C(O)C(=O)O`, the “hERG current change (%, negative = inhibition) at 1uM” value came out at 4.85%. `Cl.Oc1ccc(Cl)cc1CNCc1ccc(F)cc1`: the “hERG current change (%, negative = inhibition) at 1uM” value is 1.14%. Regarding `CCn1cc(C(=O)N2CCN(c3ccc(OC)cc3)CC2)c(=O)c2cc(S(=O)(=O)N3CCOCC3)ccc21`, the “hERG current change (%, negative = inhibition) at 1uM” value is 14.3%. To `C=CCSC1=C(C#N)C(c2ccccc2)CC(=O)N1` (stereo not drawn) belongs -0.625%; to `CCn1c(O)c(C=NCc2ccccc2)c(=O)[nH]c1=S`, 8.76%; to `COc1nc(N2CCOCC2)nc(-n2cccc2)n1`, 7.96%.

`CCCCOc1ccc(C(=O)N2CCNC(=O)C2CC(=O)OC(C)C)cc1` (stereo not drawn): the “hERG current change (%, negative = inhibition) at 1uM” value came out at 18.1%. Consider `COC(=O)CSc1cccc2c1C(=O)CC2c1ccccc1` (stereo not drawn), for which the “hERG current change (%, negative = inhibition) at 1uM” value came out at 1.5%. As for `O=C(N/N=C/c1[nH]c2ccccc2c1Cl)c1cccc(Br)c1`, the “hERG current change (%, negative = inhibition) at 1uM” value turned out to be 14.9%. `O=C(COC(=O)C1CCN(S(=O)(=O)c2ccc3c(c2)OCCO3)CC1)Nc1ccccc1OC(F)F`: the “hERG current change (%, negative = inhibition) at 1uM” value stood at 8.69%. For `CCOC(=O)C(NCc1ccccc1OC)(NC(=O)c1ccccc1)C(F)(F)F` (stereo not drawn), the “hERG current change (%, negative = inhibition) at 1uM” value worked out at 3.19%.

Values taken from article PMC4336329 (PLoS ONE, 2015).
